Experimental data reported in PubChem BioAssay AID504332 (National Center for Advancing Translational Sciences (NCATS), 2011).
Screen size: about 350,000 compounds; about 31,000 (8.9%) were called active. Inconclusive means that the source gave no clear call. Such entries were picked first, then a sample of the others. The call rests on the fitted dose curve; in most records, active means well fitted inhibition curve with a large enough effect; inconclusive means small, poorly fitted or top-dose-only effect; inactive means no such curve, though single readings can be large or run the other way. Potencies of inconclusive entries are doubtful fits and often do not repeat.

molecular target: Histone-lysine N-methyltransferase EHMT2 (Homo sapiens) (UniProt Q96KQ7); assay: qHTS Assay for Inhibitors of Histone Lysine Methyltransferase G9a; settings: G9a H3K9 monomethylation, AlphaScreen, 2 h; activity, negative = inhibition: at 59 µM (top of the series) unless noted; further: nearly all actives have a fitted effect of over 75% in size
In short: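 Signal arises when biotinylated H3K9 peptide, once monomethylated, bridges streptavidin donor and antibody-captured acceptor beads. Enzyme at 20 nM was preincubated 15 min with test compounds; peptide 500 nM and SAM 20 uM then reacted for 2 h.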
On the % scale 0 is the no-effect control and ±100 the full control effect; potency means the concentration at half of the fitted maximal effect; tags describe the fitted curve by direction and shape.

Chain of UniProt Q96KQ7 (Q96KQ7 whole entry, looked up): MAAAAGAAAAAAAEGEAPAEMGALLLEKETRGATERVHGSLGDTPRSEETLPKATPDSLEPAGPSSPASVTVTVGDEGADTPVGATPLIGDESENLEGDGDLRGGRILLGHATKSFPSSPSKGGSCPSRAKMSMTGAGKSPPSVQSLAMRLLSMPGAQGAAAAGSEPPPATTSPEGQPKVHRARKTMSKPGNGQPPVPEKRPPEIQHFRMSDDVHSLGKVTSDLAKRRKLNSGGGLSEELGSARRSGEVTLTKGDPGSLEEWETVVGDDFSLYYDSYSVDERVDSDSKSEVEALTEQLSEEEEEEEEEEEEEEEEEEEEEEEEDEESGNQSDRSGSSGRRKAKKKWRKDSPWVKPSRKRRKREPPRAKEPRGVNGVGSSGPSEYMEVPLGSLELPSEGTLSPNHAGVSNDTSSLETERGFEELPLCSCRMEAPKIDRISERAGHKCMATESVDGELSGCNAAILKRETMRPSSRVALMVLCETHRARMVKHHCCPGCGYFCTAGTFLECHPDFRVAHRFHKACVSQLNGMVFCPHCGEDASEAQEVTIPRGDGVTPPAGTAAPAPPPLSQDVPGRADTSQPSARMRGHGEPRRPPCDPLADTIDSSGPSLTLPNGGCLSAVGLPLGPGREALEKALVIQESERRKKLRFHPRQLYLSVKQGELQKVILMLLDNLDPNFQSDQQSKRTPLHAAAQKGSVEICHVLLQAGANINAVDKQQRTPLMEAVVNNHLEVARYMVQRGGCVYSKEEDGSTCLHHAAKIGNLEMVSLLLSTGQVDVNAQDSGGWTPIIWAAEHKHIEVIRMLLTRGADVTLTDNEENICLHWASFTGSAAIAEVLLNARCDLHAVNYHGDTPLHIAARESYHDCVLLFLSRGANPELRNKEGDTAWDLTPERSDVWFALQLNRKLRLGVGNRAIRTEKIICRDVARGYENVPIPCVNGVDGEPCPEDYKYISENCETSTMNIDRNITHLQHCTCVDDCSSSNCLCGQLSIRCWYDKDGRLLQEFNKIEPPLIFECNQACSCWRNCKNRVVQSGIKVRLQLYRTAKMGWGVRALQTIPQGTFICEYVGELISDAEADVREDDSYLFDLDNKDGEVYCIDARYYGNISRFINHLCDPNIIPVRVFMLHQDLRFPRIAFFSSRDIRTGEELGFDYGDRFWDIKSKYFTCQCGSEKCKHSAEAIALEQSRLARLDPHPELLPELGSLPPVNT

| SMILES | Potency | activity, negative = inhibition |
| --- | --- | --- |
| CCN1CCN(c2ccc(S(=O)(=O)N3CCOCC3)cc2NC(=O)c2ccc(C)cc2C)CC1 | inconclusive: 3.55 µM [inhibitor, single point] |  |
| OC(c1ccccn1)(c1ccccn1)c1ccccn1 | inactive |  |
| CCCn1c(=O)[nH]c(=O)c2c1nc(-c1ccccc1)n2CCN1CCOCC1 | inconclusive: 3.98 µM [inhibitor, partial curve, poor fit] |  |
| COCc1cc(S(=O)c2ccc(Cl)cc2)nc(C)n1 (stereo not drawn) |  | inconclusive: -97.2% [inhibitor] |
| CCCN1Cc2cccc(C(=O)Nc3ccc(CN4CCCC4)cc3)c2C1=O | inconclusive: 70.8 µM [inhibitor, single point] |  |
| Cc1ccc2onc(CC(=O)N3CCN(c4ccc(Cl)cc4)CC3)c2c1 | inconclusive: 25.1 µM [inhibitor, single point] |  |
| O=C(NC1CCCCC1)c1ccc(CSc2nc3ccncc3n2Cc2ccccc2)cc1 | inconclusive: 3.98 µM [inhibitor, full curve, poor fit] |  |
| Cc1cc(C(=O)CN2CCCC(C)C2)c(C)n1-c1ccc(F)cc1 (stereo not drawn) | inconclusive: 17.8 µM [inhibitor, single point] |  |
| CC(C)CNC(=O)CCCc1c[nH]c2ccccc12 | inactive |  |
| COc1cccc(CNC(=O)C2CC(=O)N(C3CCCCCCC3)C2)c1 (stereo not drawn) | inactive |  |
| Cc1nc(C)c(-c2ccnc(/N=C/NO)n2)s1 | inconclusive: 89.1 µM [inhibitor, partial curve, poor fit] |  |
| N#CC1=C(N)C(C#N)(C#N)[C@H](c2ccsc2)[C@H]2COCC=C12 | inconclusive: 3.55 µM [inhibitor, partial curve, poor fit] |  |
| COc1ccc(NS(=O)(=O)c2cccc(-c3n[nH]c(=S)n3Cc3ccccc3)c2)cc1 | active: 7.08 µM |  |
| O=C(COC(=O)c1cncc(Br)c1)Nc1ccc2c(c1)OCO2 | inconclusive: 79.4 µM [inhibitor, single point] |  |
| COc1ccc(CC(=O)OCC(=O)Nc2ccc(OC(F)F)cc2)cc1OC | inconclusive: 1.26 µM [inhibitor, full curve, poor fit] |  |
| Cc1cc2cc(CNC(=O)c3cc4ccccc4o3)ccc2n1C | inconclusive: 50.1 µM [inhibitor, partial curve] |  |
| O=C(CN(Cc1ccccc1)S(=O)(=O)c1ccccc1)N/N=C/c1ccccc1[N+](=O)[O-] | inconclusive: 22.4 µM [inhibitor, single point] |  |
| COC(=O)c1sc(-c2ccccc2)cc1NC(=O)c1ccc(OC)cc1 | inactive |  |
| O=C(CSc1ncn[nH]1)Nc1ccnc2ccccc12 | inconclusive: 35.5 µM [inhibitor, partial curve, poor fit] |  |
| O=[N+]([O-])c1ccc(/C=N/Nc2ccc3ccccc3c2)o1 | active: 10 µM |  |
| Cn1c(=O)oc2cc(S(=O)(=O)N3CCCC(C(=O)N4CCN(c5ccc(Cl)cc5)CC4)C3)ccc21 (stereo not drawn) | inactive |  |
| CN(C)S(=O)(=O)c1ccc(S(=O)(=O)NCc2ccc3c(c2)OCO3)cc1 | inactive |  |

| SMILES | Potency | activity, negative = inhibition |
| --- | --- | --- |
| COc1ccccc1CN1CCN(S(=O)(=O)c2ccccc2)CC1 | inconclusive: 8.91 µM [inhibitor, full curve, poor fit] |  |
| CC(=O)N1CC=C2C(C#N)=C(N)C(C#N)(C#N)C(CCc3ccccc3)C2C1 (stereo not drawn) | inconclusive: 0.158 µM [inhibitor, full curve, poor fit] |  |
| COc1cccc(Nc2nc(N)c([N+](=O)[O-])c(N3CCOCC3)n2)c1 |  | inactive: -4.04% [at 2.33 µM] |
| CSc1nc2ccc3nc(NC(=O)C4COc5ccccc5O4)sc3c2s1 (stereo not drawn) | inconclusive: 0.794 µM [inhibitor, full curve, poor fit] |  |
| CCc1cccc(CC)c1N(COC)C(=O)Cn1c(CC)nc2ccccc21 | inconclusive: 4.47 µM [inhibitor, partial curve, poor fit] |  |
| CCOC(=O)N1CCN(C(=O)CNCc2cccs2)CC1 | active: 31.6 µM |  |
| CCc1ccc(-n2nc3ccc(NC(=O)c4cc(Cl)c(OC)c(Cl)c4)cc3n2)cc1 | inconclusive: 35.5 µM [inhibitor, single point] |  |
| Cc1ccc(CNC(=O)c2cc3c(s2)CN(Cc2ccccc2)C3)cc1 | inconclusive: 25.1 µM [inhibitor, partial curve, poor fit] |  |
| CS(=O)(=O)Nc1cccc(-c2cn3ccccc3n2)c1 | inconclusive: 15.8 µM [inhibitor, partial curve, poor fit] |  |
| O=[N+]([O-])c1ccc(CCNc2cccc3ccccc23)c([N+](=O)[O-])c1 | inconclusive: 31.6 µM [inhibitor, single point] |  |
| Cc1ccc(Cl)cc1N1CCN(Cc2nnnn2Cc2ccco2)CC1 | inconclusive: 44.7 µM [inhibitor, partial curve] |  |
| O=C(COC(=O)C1CC1)Nc1ncc(C(F)(F)F)cc1Cl | inconclusive: 50.1 µM [inhibitor, partial curve, poor fit] |  |
| O=C(CSc1nnc(CNc2ccc(F)cc2)n1Cc1ccco1)N1CCOCC1 | inconclusive: 0.447 µM [inhibitor, full curve, poor fit] |  |
| Fc1ccc(Nc2nc(N3CCOCC3)nc(N3CCOCC3)n2)cc1 | active: 44.7 µM |  |
| COc1cccc(NC(=O)C(C)OC(=O)c2n[nH]c3ccccc23)c1 (stereo not drawn) | inconclusive: 3.16 µM [inhibitor, single point] |  |
| CC(C)C(=O)Nc1nnc(CCN2CCOCC2)s1 | inconclusive: 79.4 µM [inhibitor, single point] |  |
| CN(CCNC(=O)c1cccc(N2CCCC2=O)c1)Cc1ccccc1 | inactive |  |
| NNc1nc(-c2ccccc2)cs1 | active: 22.4 µM |  |
| N/C(Cc1ccc([N+](=O)[O-])cc1)=N\OC(=O)Cc1ccc(Cl)cc1 | inconclusive: 44.7 µM [inhibitor, partial curve, poor fit] |  |
| COc1cc(NC(=O)c2noc3c2CCC3)c(OC)cc1Cl |  | inconclusive: -64.2% [inhibitor] |
| CC(=O)c1ccc(NC(=O)/C(=C\c2ccco2)NC(=O)c2ccco2)cc1 | active: 50.1 µM |  |
